Data as given in publication PMC12136788.
Some of the results follow.

B1: chr19:41288841:41288842:-_ENSMUSG00000025016_ENSMUST00000025989|mus_hu|FALSE|FALSE (ssRNA)
RNA: GGGAGUUCUACAGUCCGACGAUCUAAAUCUCAAAAUGUUUAAUAAAAACAAGUAUCUUCUCCAUUUAACACUUUGCUUUCUAACUGUACAGUAAAUUGCAUUGUAGAGAGUACACUUCUGUCUUCAAACUGUAUCUUCUUUGGCAACAGAGGAUUGAGCAUCA
B2: chr17:49043493:49043494:-_ENSG00000008294_ENST00000510283|hu_mus|motif|central (ssRNA)
RNA: GGGAGUUCUACAGUCCGACGAUCUCGAUUUGUUCAUGAUAUACUGAAAUUUCCUAUUAACACUGGUGCAGUAAACGGGCUCGCUCCUCUGUAUUGUUACCAUAGAACAGAUUGUGUAAUAUAAAGGUAACAGGGGAAAAUGCUCAACAGAGGAUUGAGCAUCA
B3: chr16:45737064:45737065:-_ENSMUSG00000033157_ENSMUST00000066983|mus_mus|FALSE|FALSE (ssRNA)
RNA: GGGAGUUCUACAGUCCGACGAUCAAGUGCAUGAUAUUGUGUCACCAAUCCAUCUGCAGCAGUAGCUAUACCAAUAAGAGCUAUGACUUUUUCCGGCCGUGCAAUUGCAGCAUGCAGCAUGAGCCAUCCACCAAGACUGGAUCCCAACAGAGGAUUGAGCAUCA
B4: chr17:38574076:38574077:-_ENSG00000131747_ENST00000423485|hu_mus|FALSE|FALSE (ssRNA)
RNA: GGGAGUUCUACAGUCCGACGAUCAGCGGUGACAACUCCAUGGUGACGGUCCUGAAGAGGCUCGAGAAUCCGGAAAGCGACAAAACCAGCGGGAAACGCUAGGCGACCCGCGACGCGCGACGCGGGACCUGGACGCUCCCCUCACAACAGAGGAUUGAGCAUCA
B5: chr10:126434673:126434674:+_ENSMUSG00000078429_ENSMUST00000105256|mus_hu|FALSE|FALSE (ssRNA)
RNA: GGGAGUUCUACAGUCCGACGAUCUUUUAAAGCAUUCACUAUUAAGAACCUUUGAAAGCAGGAGACACCCAGAGUGCAGGUCUGAGGGGCUCACUCACUCCUGUUACCAGAGGCAGAAAGCAUGCGCAUUAGGCUGGCAAAUGGCAACAGAGGAUUGAGCAUCA
B6: 76675824_76675944_9205_3pUTR_ENSG00000089916_ENST00000261530|human|control|control (ssRNA)
RNA: GGGAGUUCUACAGUCCGACGAUCAGCCCCUUUUGGGCACAGGCCCCCUUACCAGUCCAAGACCCGGAAGAGGAGAAAGCAGAAGAGGGAACACAGUCCAGGCCAUCUUUUCAUAAAUAGCAACUCAUAAGUAAACAGGAGUGACAACAGAGGAUUGAGCAUCA
B7: chr7:54825262:54825263:-_ENSG00000132432_ENST00000352861|hu_hu|hu_hu_hu_mus_False|58_68 (ssRNA)
RNA: GGGAGUUCUACAGUCCGACGAUCCUGCCGGCUGGGCUCCACAAACUGCAUUACCUGAUCCAUGUUUUACCCAACCGACACCUAAAACGUAGAGACACGUAGCUCAGGAGAGAACCGAGCCCAACGGAACCGGAAGCUGGCAACCAACAGAGGAUUGAGCAUCA
B8: chr22:19452774:19452775:-_ENSG00000070010_ENST00000399523|hu_hu|hu_hu_hu_mus_False|8_48 (ssRNA)
RNA: GGGAGUUCUACAGUCCGACGAUCCUUCUCAUUGUAGUUGAUAGCAAUCACAUCUCCAGUCGUCAGACAGGCGAAGUUUCUCAAUGCGUUUUCUAAUACCGCUUUAGGGUUGGUAAUAUCCAGGAAGUCAGGGCUCUGAGGCUGCAACAGAGGAUUGAGCAUCA
B9: chr1:117910967:117910968:+_ENSG00000198162_ENST00000356554|hu_mus|motif|central (ssRNA)
RNA: GGGAGUUCUACAGUCCGACGAUCUUUUGAAGAGUCUGGAAGGAAGAAGAAUGCCCCAAAACACAGGGUGAUGAAGGCACGGAGGAUGAGGAGAAGGAUAAACUUCUCGGAGAGUCUCAAGGUAGCCCUGUGAUGUGGGAAGGACAACAGAGGAUUGAGCAUCA
B10: chr19:47656230:47656231:+_ENSG00000142230_ENST00000270225|hu_hu|motif|central (ssRNA)
RNA: GGGAGUUCUACAGUCCGACGAUCUAGAUUGGCAAAUGUGUAUCCAUGGUAGCCAAAAACAUCUCCUGUAAAGAACUUGAUGCGGUUUUUGUGACAGAUCUGGUCAACUUUAACUAUGACAUCCCUGGAGCAGCAAGUCAGACACAACAGAGGAUUGAGCAUCA
B11: chr2:47387770:47387771:-_ENSG00000143933_ENST00000272298|hu_mus|hu_hu_hu_mus_True|28_28 (ssRNA)
RNA: GGGAGUUCUACAGUCCGACGAUCAAGGUUUAAGGACAAUGACAGUAAGAUAAGGGAAGAAAACAUGGAGGAAUGAAGUCCUAAUUACUAUACAUGCAUAUUUUUUGGACAGUAGGGGGGGGAACCUUUUACAGAUAAGUUACACAACAGAGGAUUGAGCAUCA
B12: chr7:75932113:75932114:+_ENSG00000106211_ENST00000248553|hu_hu|hu_hu_hu_mus_False|18_58 (ssRNA)
RNA: GGGAGUUCUACAGUCCGACGAUCCUGCGACCACUCAUCGGGCAACCGGGGCACCCCGAAAGCUUGAUCGAAGAGGCGGCUAUGCGGAGGGUACCAGUCCCGGAAUGGUUCCCAGCUGCCCCGCAGGAGCAGCGAGAAGGGCACCAACAGAGGAUUGAGCAUCA
B13: chr1:39494447:39494448:+_ENSG00000168653_ENST00000372967|hu_mus|hu_hu_hu_mus_False|1_1 (ssRNA)
RNA: GGGAGUUCUACAGUCCGACGAUCGCACCGAGCGGCGUUCUUAUAGGGCUGUUCUGCGCUUAGGAACAUAAAGUGCCGGUCCAGGCUGAUGCCCAGCUUUUUCUGUAUGUCAAGGAAAGGCAUGGCUCUGCAGUGCCCCCUUGACAACAGAGGAUUGAGCAUCA
B14: chr6:41757443:41757444:+_ENSG00000214736_ENST00000398881|hu_mus|hu_hu_hu_mus_False|18_18 (ssRNA)
RNA: GGGAGUUCUACAGUCCGACGAUCGAACCGUGCAGAGGCAACAUCUCAGCCGACACUGGGGGAUGGGGGGGCAGUGGGGGGGGGUUCAGGCAAGGAGAGGGAGUCAACUUCAGCUGCUCAAACUUCAGGAUCUUGUGGUCACAGCAACAGAGGAUUGAGCAUCA
B15: chr17:56573269:56573270:-_ENSG00000108389_ENST00000323456|hu_mus|FALSE|FALSE (ssRNA)
RNA: GGGAGUUCUACAGUCCGACGAUCGAGUGAGCUGACAGCUUCCUUCUCUAGAAACUGUUCAGGUGGCUUCCCUAAGCCAUCAGAAGUCCUACCCUGCUCCUCUUGGGCUGAAGGGUCCGGGGCCAGUGCUUCAGUUUCUUCCAGCAACAGAGGAUUGAGCAUCA
B16: chr13:3599227:3599228:-_ENSMUSG00000033799_ENSMUST00000096069|mus_mus|FALSE|FALSE (ssRNA)
RNA: GGGAGUUCUACAGUCCGACGAUCUCAAGUAUGAUUUUAGAAGUGGGUGCUGCCAUCUUUUAGGAUCCUUGUGCUGAAAAGCUACAAUUAUAUAAGGACAGGUCUGUCUGGGUCAUUUAAUAACAGUGUUGCCUGAAAGUUCAUCAACAGAGGAUUGAGCAUCA
B17: chr2:198351390:198351391:-_ENSG00000144381_ENST00000345042|hu_hu|hu_hu_hu_mus_False|8_48 (ssRNA)
RNA: GGGAGUUCUACAGUCCGACGAUCUCAUUCCCACCCUCCACAGAAAGGCUGCUUCUGAACUCUCAUGUGGUGACACAGCGCUACAGUCCUGAUUUUAACAGAACAGUAGAGAUGCCUCAGUGAUUUAUUAAGUUGAAAGGACACCAACAGAGGAUUGAGCAUCA
B18: chr17:64801638:64801639:+_ENSG00000154229_ENST00000413366|hu_mus|hu_hu_hu_mus_False|8_28 (ssRNA)
RNA: GGGAGUUCUACAGUCCGACGAUCUAUAUAUAUAUAUACAUAUGUACACAUAUAUAGUAAAACCCUAGUUAAACGUGUAAAGUAGCCAUUCAUUUUUAAAAUUACAUCUACAUUUAAAAAUUAAUAUAUCUGAUACAGUGCCAGCAACAGAGGAUUGAGCAUCA
B19: chr5:36177297:36177298:+_ENSG00000145604_ENST00000274255|hu_mus|FALSE|FALSE (ssRNA)
RNA: GGGAGUUCUACAGUCCGACGAUCCUUUAGCAUGAUACUGUCACUUAAGUCGAGGCGGAUGAGGUUGGGGCAUCGUUUAAUUAUGGUACAAAGAUCUGUUUUCUGGAGGUUCUUUCGGUAGCCGCUGAGGUUCAGCUGGGUGAUCAACAGAGGAUUGAGCAUCA
B20: 44445012_44445132_2323_3pUTR_ENSMUSG00000032097_ENSMUST00000170489|mouse|control|control (ssRNA)
RNA: GGGAGUUCUACAGUCCGACGAUCGAGACUUCAACGUGAAACCAAAAUGAAGAGGCAAAGAAAUAAAAAAGAAAAUAGAACAUGACUCUGUUGAUUCCUUGGGCUGUGUGUAAAGAUGAUAUUCUUAAUGGUCUUGUAGCAUAACAACAGAGGAUUGAGCAUCA
B21: chr1:60041781:60041782:+_ENSMUSG00000041040_ENSMUST00000036540|mus_hu|mus_mus_mus_hu_False|58_98 (ssRNA)
RNA: GGGAGUUCUACAGUCCGACGAUCAAGUUUACAAUAGCUCAACUUUAGCAGUAGUGGCAAAUUUUCUUUUAUUUUCCUUCCUAAAAGAAAAUCUUUAUAACCCAGUCCUAGUCUUGGACAUAGUGAAAGCUAUAAAUUCUGACUCAACAGAGGAUUGAGCAUCA
B22: chr2:153583694:153583695:+_ENSMUSG00000027479_ENSMUST00000028981|perfect_dup|motif|central (ssRNA)
RNA: GGGAGUUCUACAGUCCGACGAUCAAAAAACUUCUUGAACCAUUGAACAAAUUCAAAAUUGUCCUGAAAUUUUCCUUUUACGGAUUUAUCCACAGGAAUUAUUUUGUCAACGCCCAUCCUCUUGAAGCCUGCUUGUAGUAUUUUCAACAGAGGAUUGAGCAUCA

target: T1, UNK ZnF1-3 (human, UniProt Q9C0B0 31-174); assay: nsRBNS (natural sequence RNA bind-n-seq); RBNS binding buffer (assumed for nsRBNS): 25 mM Tris pH 7.5, 150 mM KCl, 3 mM MgCl2, 0.01% Triton X-100, 500 ug/ml BSA, 20 U/ml SUPERase-In, 4 C; UNK is unkempt and MSI1 is Musashi-1; names of the RNAs are library labels; protein concentration not given here; high values mean tight binding
T1 sequence: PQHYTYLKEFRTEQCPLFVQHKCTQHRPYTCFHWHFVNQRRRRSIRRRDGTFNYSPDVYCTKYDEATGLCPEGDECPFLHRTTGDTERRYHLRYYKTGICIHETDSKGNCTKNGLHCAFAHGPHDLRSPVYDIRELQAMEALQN

Binder | binding signal [enrichment R]
B1 | 0.35
B2 | 1.02
B3 | 1.25
B4 | 0.976
B5 | 1.41
B6 | 2.65
B7 | 0.732
B8 | 0.775
B9 | 1.82
B10 | 0.984
B11 | 1.66
B12 | 0.886
B13 | 0.775
B14 | 3.1
B15 | 0.851
B16 | 1.34
B17 | 1.47
B18 | 1.18
B19 | 1.32
B20 | 2.02
B21 | 0.456
B22 | 0.711
